In ChEMBL document CHEMBL4888484, “Replenishing the malaria drug discovery pipeline: Screening and hit evaluation of the MMV Hit Generation Library 1 (HGL1) against asexual blood stage Plasmodium falciparum ,using a nano luciferase reporter read-out” (2022):
About 540 (0.36%) of roughly 150,000 compounds showed an effect of 50% or more. The list shows a part of the results.

Each compound was assayed on Plasmodium falciparum (assay: Primary screen in NF54 nanoGlo assay, in single point, at 2uM, 72h; a lower Z score goes with more inhibition). Conditions: timepoint 72 hour.
Type: functional, Erythrocyte

Row | Compound | % Inhibition [%] | Z score
1 | COc1nc(-c2ccc(C(F)(F)F)cc2)n(-c2ccc(NC(=O)c3ccc(F)cc3)cc2)n1 | 5 | -0.6
2 | COc1ccc(S(=O)(=O)N2C[C@H]3CC=CC[C@H]3C2)cc1Cl | -6 | 1.01
3 | Oc1cc(-c2cccc(Cl)c2)cc2c1OCCNC2 | 3 | -0.44
4 | CC1CCCCN1C(=O)CN1CCN(C(=O)[C@H]2C[C@@H]2c2cccnc2)CC1 (stereo partly specified) | -8 | 1.67
5 | O=C(NCCc1ccc(Cl)cc1)c1c(O)c2c([nH]c1=O)CCCC2 | 13 | -1.97
6 | O=C1CC[C@@]2(CCCN(c3ccccn3)C2)CN1Cc1ccccc1 | -1 | 0.11
7 | CCN1CC[C@H](NC(=O)c2nc(C3CC3)ncc2Br)C1 | 1 | -0.16
8 | CCCN(CC(=O)N(Cc1ccco1)C[C@H]1CCCO1)C(=O)c1ccc(C)cc1 | -8 | 1.14
9 | COc1ccc(OC)c(NC(=O)Cn2cnc3nc(N4CCCC4)sc3c2=O)c1 | -12 | 2
10 | O=C(Cn1ccc2ccccc21)N1CCN(c2ccc(-n3cncn3)nn2)CC1 | 17 | -2.18
11 | CCOC(=O)C1(NCc2nc(C)c(C)o2)Cc2ccccc2C1 | -8 | 1.12
12 | CCCc1cnc(C)nc1-c1ccccc1N(C)C | -17 | 1.65
13 | Cn1cc(C(=O)N[C@H]2CCCN(Cc3ccccc3)C2)ccc1=O | -8 | 1.23
14 | CC(C)[C@H](C)N(C)C(=O)C1(S(C)(=O)=O)CCC1 | -10 | 0.88
15 | C#CCOC[C@@H](O)CN(CCC(C)C)Cc1c(-c2ccccc2)noc1N(C)C(C)C | 8 | -1.52
16 | CC(C)Cc1cnc(NC(=O)N[C@@]2(C)CCOC2)s1 | 8 | -1.23
17 | Cc1ccc(Cl)c(CN2CCC[C@H](Cn3ccnc3C)C2)c1F | 3 | -0.47
18 | Cc1c(C2=CCN(S(C)(=O)=O)CC2)c2ccccc2n1Cc1ccc(F)cc1 | 8 | -1.03
19 | CC(C)c1ccc(-c2n[nH]nc2C(=O)c2ccccc2N)cc1 | 40 | -5.19
20 | CCc1nc(NC(=O)CCc2ccco2)sc1C | -11 | 1.53
21 | Cn1nc(C2CC2)nc1COc1cc(C(F)F)nc2ccc(Cl)cc12 | 31 | -4.48

Row | Compound | % Inhibition [%] | Z score
22 | O=c1[nH]c2ccc(Br)cc2c(-c2ccccc2)c1-c1cc(-c2ccccc2)c2ccccc2n1 | -12 | 2.43
23 | C=CCn1c(N)c(C(=O)NCCc2ccc(OC)c(OC)c2)sc1=S | 0 | 0.06
24 | CCN(CC)c1ccc(C(=O)Nn2cc(C(=O)Nc3cc(Cl)c(OC)cc3OC)c3ccccc3c2=O)cc1 | -3 | 0.43
25 | COc1ccc(S(=O)(=O)N(C)c2ccnc(C(=O)N3CCCCCC3)c2)cc1 | -8 | 1.25
26 | CN(C)CCN(Cc1ccsc1)C(=O)c1ccc(-c2cnc(N)cn2)cc1 | -22 | 1.99
27 | Cc1cc(S(=O)(=O)N2Cc3c(C(=O)NCc4cccnc4)nn(C)c3C2)ccc1F | -2 | 0.4
28 | CNC[C@H]1CCCN1S(=O)(=O)c1cccc(C)c1Cl | -4 | 0.69
29 | CCOCCC(=O)NC1(CN2CCCCC2)CC1 | -9 | 1.85
30 | Cc1cc2c(cc1S(=O)(=O)N1CCC[C@H](C(=O)N3CCCCCC3)C1)OCC(=O)N2 | 3 | -0.55
31 | COCCNC(=O)N1CC[C@H](S(=O)(=O)c2ccccc2)C1 | -10 | 1.71
32 | Cc1cnccc1NC(=O)N1CCC[C@H]1c1ccc2c(c1)OCCO2 | -6 | 0.81
33 | Cc1ccc(NC(=O)Cn2cnc3cc4c(cc32)OCCO4)cc1C | -16 | 1.58
34 | COC[C@H]1CCN(Cc2ccc3ncccc3c2)C1 | -2 | 0.36
35 | CN1CC[C@H](N(C)Cc2cccc(OC(F)(F)F)c2)C1=O | -8 | 1
36 | Cn1cc(C(=O)c2cc3ccccc3o2)cn1 | -17 | 2.15
37 | COc1ccccc1[C@@H](NCc1cccnc1)c1ccco1 | -13 | 1.52
38 | COc1cccc2c(C(=O)N3C[C@H](N)C4(CCC4)C3)coc12 | 6 | -0.96
39 | Cc1noc(C)c1CC(=O)N1CCCCCC1 | -23 | 2.1
40 | NC(=O)c1cn2c3c(cc(Br)cc3c1=O)CC2 | -1 | 0.06
41 | CC1CNc2c(C(=O)N[C@@H]3C[C@H]3C3CCCCC3)cnn2C1 (stereo partly specified) | -5 | 0.61
42 | Cc1cccc(CO[C@]2(C(=O)NCC3CC3)CC(OCc3ccc(F)cc3F)[C@H](O)[C@H](O)C2)c1 (stereo partly specified) | -18 | 1.78

Row | Compound | % Inhibition [%] | Z score
43 | C[C@@H]1CN(C(=O)c2ccc(Cl)s2)CC[C@@]1(O)C1CCOCC1 | 14 | -1.81
44 | Cc1cc(C(=O)N[C@@H](C)CCc2ccccc2)c2c(C)nn(-c3cccc(Cl)c3C)c2n1 | -7 | 0.74
45 | Cc1nc(C)c(C(=O)Nc2ccc3[nH]c([C@H](C)O)nc3c2)o1 | 7 | -0.88
46 | CC(C)c1ccc(C(=O)N[C@H]2CCOC[C@@H]2O)c(=O)n1C | 19 | -2.46
47 | CCc1ccc(CN(Cc2cc(C)no2)C2CC2)cc1 | -7 | 1.26
48 | CN1CCC[C@H](c2nc(-c3ccc(F)cn3)no2)C1 | -7 | 1.09
49 | Cc1cccc(Cl)c1OCCNC(C)(C)C | -19 | 2.44
50 | O=C(N[C@H]1CO[C@H]2[C@@H]1OC[C@@H]2Nc1nccc(-c2ccco2)n1)c1ccc2c(c1)OCO2 | -11 | 1.39
51 | C[C@@H]1CN(c2ccc(C(=O)N(C)C)cn2)C[C@H](C)N1C | -17 | 1.96
52 | O=C(Nc1ccc2c(c1)OCCO2)N1CCC[C@H](c2nnc3ccccn23)C1 | -12 | 1.17
53 | CN(C)c1nc(N)nc(CNC(=O)[C@]2(c3ccc(F)cc3)CC2(C)C)n1 | 6 | -0.85
54 | Cc1cccc(C)c1NC(=O)C1(NC(=O)CCc2cc(C(C)(C)C)c(O)c(C(C)(C)C)c2)CCCCC1 | -2 | 0.39
55 | CCCn1cc(CN/C(=N\c2cc(C)ccc2C)NC(=O)c2cccc(F)c2)c(C)n1 | 1 | -0.17
56 | CCC(C)N(CC(=O)N1CCc2sccc2C1COc1ccc(C)cc1)C(=O)c1ccc2c(c1)OCO2 (stereo unspecified) | -7 | 0.83
57 | CC(C)(C)OC(=O)N1CCN(C2CS(=O)(=O)C2)CC1 | 4 | -0.46
58 | Cc1nc(C)n(CCCn2cnc3cn(C)nc3c2=O)n1 | -2 | 0.31
59 | O=C(C[C@H](c1ccccc1F)c1c[nH]c2ccc(Cl)cc12)NCc1ccncc1 | 3 | -0.35
60 | O=C(NC[C@H]1COc2ccccc2O1)N1CCN(c2nccs2)CC1 | -8 | 1.26
61 | CC(C)(CCC(=O)N1CCn2ccnc2C1)C(=O)N1CCn2ccnc2C1 | 15 | -1.76
62 | CC(C)OCC(=O)Nc1nc2n(c1C(=O)OC(C)(C)C)CCCC2 | -14 | 2.1
63 | Cc1cc(C)nc(-n2nc(C)c3c2N(Cc2ccccc2F)C(=O)C[C@@H]3c2ccc(Cl)cc2)n1 | -9 | 1.23

Row | Compound | % Inhibition [%] | Z score
64 | CCC(=O)N[C@@H]1c2ccccc2C2(CCN(C(=O)C3CCCC3)CC2)[C@H]1OCc1cccnc1 | 10 | -1.23
65 | Cc1nn(C)c(C)c1C(=O)C(=O)N(C)C1CCCCCC1 | -37 | 4.28
66 | CC1C(C(=O)N2CCCCC2c2nc(-c3ccccc3)c[nH]2)C1(F)F (stereo unspecified) | -1 | 0.15
67 | O=C1C2CCC(c3ccccc3)CC2C(=O)N1c1cccc2ccccc12 (stereo unspecified) | 6 | -0.75
68 | Cc1ccc(NS(=O)(=O)c2c(C)[nH]c(-c3nnc(C4CCC4)o3)c2C)c(C)c1 | 0 | 0.05
69 | Cc1cc(=O)c(C(=O)N[C@H](C#N)c2cc(Cl)cc(Cl)c2)c[nH]1 | 2 | -0.33
70 | Cc1nsc(NCCCOC2CCOCC2)n1 | -4 | 0.44
71 | Cc1ccc(OC2CCN(C(=O)NCc3ccncc3C)CC2)cc1 | -2 | 0.21
72 | CC(C)CCC(=O)N(C)Cc1ccc(Br)o1 | -10 | 1.57
73 | Cc1[nH]c2c(C)ccc3c2c1CCN1C(=O)OC2(CCCCC2)[C@@]31C | 2 | -0.25
74 | CCC[C@H](C)NC(=O)Nc1cccc(OC(F)F)c1 | -3 | 0.53
75 | COCC(=O)Nc1cc(C(=O)N2CCN(c3ccccc3)CC2)c2c(c1)ncn2CCc1ccccc1 | -7 | 1.03
76 | Cc1nc(Cc2ncnn2C2CCCCC2)cs1 | -10 | 1.77
77 | CC1CCCC(Nc2c(-c3ccsc3)nc3ccc(Cl)cn23)C1C (stereo unspecified) | -15 | 1.65
78 | COCCNc1ncccc1-c1noc([C@@H]2CCCN2C2CCCCC2)n1 | 9 | -1.01
79 | O=C(NCc1ccccc1)C1CC(=O)N(C2CC3CCC2C3)C1 (stereo unspecified) | 3 | -0.3
80 | CC(C)Cc1cc(NC(=O)CCC(F)(F)F)[nH]n1 | -1 | 0.13
81 | CN(C)C(=O)C[C@H]1CCCCN(Cc2ccccc2)C1=O | 0 | -0.06
82 | COc1ccc(CCC(=O)N2CCC[C@H](Oc3cc(C)nc(C)n3)C2)cc1 | 7 | -1.03
83 | Cn1ncnc1NC(=O)C1CCCCC1 | -7 | 0.97
